The text below walks through data of ChEMBL document CHEMBL4888484, “Replenishing the malaria drug discovery pipeline: Screening and hit evaluation of the MMV Hit Generation Library 1 (HGL1) against asexual blood stage Plasmodium falciparum ,using a nano luciferase reporter read-out” (2022).

One may read the % Inhibition as the relative decrease from the control value, in per cent.

The campaign covered roughly 150,000 compounds. About 540 (0.36%) showed an effect of 50% or more. The list shows a part of the results.

This assay has as its system Plasmodium falciparum. Nature of the assay: Primary screen in NF54 nanoGlo assay, in single point, at 2uM, 72h; a lower Z score goes with more inhibition. The class given is functional, Erythrocyte. The note with it: timepoint 72 hour.
On to `Cc1ccc(NC(=O)Nc2ccc(Cn3cnc(-c4nc(-c5ccc(C)cc5)no4)c3)cc2)cc1`, for which the “% Inhibition” value is reported as -13% and the Z score is on record as 1.67.

For `Cc1cccc(C[C@H](C)NC(=O)c2cnc(N)s2)n1`, the “% Inhibition” value was -10% and the Z score turned out to be 1.72.

For the compound `Cc1nn(C)c(Cl)c1C(=O)Nc1ccc2ccccc2c1`, the “% Inhibition” value came to 10% and the Z score is given as -1.64.

Consider `COCCn1nc(C(=O)NCCn2ccnc2)c2c1CCOC2`, for which the “% Inhibition” value was found to be 1% and the Z score was -0.1.

Turning to `Cc1cc(OC[C@@H](O)COCc2ccccc2)nnc1C`, the “% Inhibition” value was -2% and the Z score was determined as 0.42.

For `Cc1scc(CNC(=O)N2CCC(N(C)C[C@H](C)O)CC2)c1C`, the “% Inhibition” value is reported as 0% and the Z score amounted to 0.06.

As for `Cc1ccc(Cc2nnn(CCC(=O)Nc3cc(C)on3)n2)cc1`, the “% Inhibition” value is -5% and the Z score turned out to be 0.61.

With `Cc1ncn(CCNCc2cccc(OC(F)F)c2)c1C`, the “% Inhibition” value is -15% and the Z score came out at 1.5.

For the compound `NS(=O)(=O)[C@H]1CCN(C(=O)Nc2ccccc2Oc2ccccc2)C1`, the “% Inhibition” value is given as -2% and the Z score is on record as 0.37.

Regarding `COc1ccc(-n2cc3cnnc(-c4ccccc4)c3n2)cc1`, the “% Inhibition” value was -2% and the Z score was 0.3.

Turning to `CCCn1c(=O)c2sc(N3CCCCC3)nc2n(CC(=O)NCc2cccc(OC)c2)c1=O`, the “% Inhibition” value is recorded as -26% and the Z score stood at 2.29.

In the case of `O=C(CC[C@H]1CCCN(CCO)C1)N1CCN(c2ccccn2)CC1`, the “% Inhibition” value is reported as -5% and the Z score is 0.91.

As to `CC(=O)N1CCC(C(=O)OCCC#Cc2ccccc2)CC1`, the “% Inhibition” value is on record as 3% and the Z score is -0.33.

For the compound `CCOC(=O)c1c(S(=O)(=O)N2CCC[C@H](C(=O)OCC)C2)c(C)n(C)c1C`, the “% Inhibition” value is given as 2% and the Z score is listed as -0.35.

Regarding `CN(C)C(=O)[C@H](NC(=O)c1ccc(Oc2ccccc2)o1)c1ccccc1`, the “% Inhibition” value was 6% and the Z score is -0.82.

In the case of `CC(C)OC[C@@H](O)CN(C)Cc1nccs1`, the “% Inhibition” value is listed as -7% and the Z score is listed as 0.65.

For the compound `COc1ccc(CCn2nnnc2N2CCC(CO)(OC)CC2)cc1`, the “% Inhibition” value was 0% and the Z score was -0.01.

For `CC1(C)C(=O)NC(=O)N1CC(=O)Nc1ccc(-c2cnc(C3CC3)o2)cc1`, the “% Inhibition” value is -3% and the Z score is 0.36.

In the case of `CS(=O)(=O)[C@H]1CCCN(c2cccc(Br)c2C#N)CC1`, the “% Inhibition” value was found to be 9% and the Z score is listed as -1.75.

With `CCc1c(C)sc(NC(=O)C2CCCC2)c1C#N`, the “% Inhibition” value is reported as -16% and the Z score worked out at 2.24.

Turning to `CCO[C@H]1COC[C@@H]1Nc1ccc(Cl)cn1`, the “% Inhibition” value is -1% and the Z score is listed as 0.27.

Turning to `COc1ccccc1-c1nc2cc(N)cc(C(=O)NCCc3cccs3)c2n1C`, the “% Inhibition” value is -5% and the Z score amounted to 0.56.

Consider `CCN(CC)C(=O)[C@@H]1CCCN1C(=O)Cc1cccc2ccccc12`, for which the “% Inhibition” value is recorded as -6% and the Z score is 0.9.

Turning to `CC[C@@H](C(=O)OC)N(C(=O)c1ncoc1C(C)C)c1ccccc1`, the “% Inhibition” value was -3% and the Z score stood at 0.29.

For the compound `O=C(c1cnc(O)cn1)N1CCc2[nH]nc(-c3cccc(Cl)c3Cl)c2C1`, the “% Inhibition” value was -2% and the Z score came out at 0.3.

With `CC(C)n1ncnc1CN(CC(=O)O)c1ccccc1`, the “% Inhibition” value is -9% and the Z score is recorded as 1.27.

Take `Cc1c(N)cccc1-c1nc2ccc(F)cc2n1C1CC1`: the “% Inhibition” value is listed as -2% and the Z score worked out at 0.39.

As for `N#Cc1ccc(N2CCCn3nc(CCC(=O)N4CCCC4)cc3C2)nc1`, the “% Inhibition” value is -14% and the Z score is 1.75.

On to `O=C(C1CCN(C2CCN(CCCc3ccccc3)CC2)CC1)N1CCCCCC1`, for which the “% Inhibition” value was determined as 3% and the Z score is listed as -0.48.

In the case of `COc1ccc(-c2nc3c(s2)[C@@H](NC(=O)CC2CCN(C)CC2)CCC3)cc1`, the “% Inhibition” value is reported as -11% and the Z score is listed as 1.82.

Consider `Cc1ccc(C(=O)N(C2CC2)[C@H]2CCNC2)c(O)c1`, for which the “% Inhibition” value is -1% and the Z score was 0.23.

As to `O=C1CC2(CCCC2)CN1[C@@H]1c2ccccc2C2(CCNCC2)[C@H]1O`, the “% Inhibition” value is recorded as -9% and the Z score was 1.28.

In the case of `CCn1c([C@@H]2CCCO2)nnc1N(C)Cc1cc(Cl)ccc1F`, the “% Inhibition” value was -4% and the Z score was determined as 0.83.

Consider `COCc1nc(CCNC(=O)c2cc(C)n(C)n2)no1`, for which the “% Inhibition” value was -4% and the Z score is 0.53.

`CCOc1cc(N2CCCC[C@H](N3CCN(C)CC3)C2)ncn1`: the “% Inhibition” value is reported as -11% and the Z score is 1.46.

On to `COc1ccc(S(=O)(=O)c2c(N)n(Cc3ccc(C)cc3)c3nc4ccccc4nc23)cc1`, for which the “% Inhibition” value is -6% and the Z score came to 0.56.

Regarding `Cc1nnc(-c2ccccc2C(=O)Nc2cccc(Cl)c2)o1`, the “% Inhibition” value stood at 0% and the Z score is recorded as -0.02.

With `CC[C@H]1CN(S(=O)(=O)c2cccc3nn(C)nc23)CCO1`, the “% Inhibition” value is given as -2% and the Z score is 0.46.

As for `COCCNc1nc(CC(=O)NC2CN(C3CC3)CC2C)cs1` (configuration not stated), the “% Inhibition” value is 19% and the Z score is recorded as -2.37.

As to `O=C(NC1CCCCC1)N1CCCCC[C@@H]1CN1CCOCC1`, the “% Inhibition” value is recorded as -2% and the Z score is on record as 0.36.

As to `O=C(CCCc1ccccc1)N1C2C=CCC1CC2` (configuration not stated), the “% Inhibition” value was -4% and the Z score is 0.68.

Turning to `CN(C[C@H]1COc2ccccc2O1)C(=O)c1ccc(-n2cnnn2)cc1`, the “% Inhibition” value is reported as -6% and the Z score worked out at 0.77.

Regarding `NC(=O)CCc1nc(C2CC2)nn1-c1cccc2ccccc12`, the “% Inhibition” value is given as -9% and the Z score is 1.29.

`COc1cccc(NC(=O)Cn2cc(-c3ccc(C)cc3)c(N3CCOCC3)n2)c1`: the “% Inhibition” value is -12% and the Z score is 1.36.

For the compound `Cc1nc(NC(=O)c2csnc2C)n[nH]1`, the “% Inhibition” value was -16% and the Z score is on record as 1.42.

Turning to `O=S(=O)(c1ccccc1F)N1CCC[C@@H]1c1nc[nH]n1`, the “% Inhibition” value was determined as 5% and the Z score is recorded as -0.64.

As for `COc1cccc(CN2CCN(c3cccs3)CC2)n1`, the “% Inhibition” value is -3% and the Z score is 0.59.

As to `Cc1ccc2c(c1)CCCN2C(=O)CCC(=O)c1ccccc1`, the “% Inhibition” value is listed as -8% and the Z score was 0.75.

Turning to `COCCOC1CCC(C(=O)N(C)c2ccnc(C)c2)CC1` (configuration not stated), the “% Inhibition” value is given as -11% and the Z score came out at 2.

In the case of `CC(C)c1ncc(CN2CCOc3c(O)cc(-c4ccc(Cl)cn4)cc3C2)cn1`, the “% Inhibition” value is recorded as -5% and the Z score worked out at 0.94.

Regarding `CC1CC(NC(=O)NOCc2ccc(F)cc2)CN1C1CC1` (configuration not stated), the “% Inhibition” value is -4% and the Z score is on record as 0.62.

Turning to `CCOc1ccc(N2CC(C(=O)N(CC(F)(F)F)C(C)C3CC3)CC2=O)cc1` (configuration not stated), the “% Inhibition” value is listed as -4% and the Z score was 0.53.

Consider `CN(CCOc1ccccc1)c1ncnc2[nH]ccc12`, for which the “% Inhibition” value is recorded as 4% and the Z score is -0.55.

For the compound `Cc1cccnc1NCCNc1cc(C(C)C)nc(N)n1`, the “% Inhibition” value is on record as -10% and the Z score stood at 1.92.

In the case of `CCn1cc(CN2CCN(CCOC)[C@@H]3CS(=O)(=O)C[C@@H]32)cn1`, the “% Inhibition” value stood at 4% and the Z score was -0.47.

As to `Cc1ncc2c(n1)CCCN(CC(=O)NCCC(C)C)C2=O`, the “% Inhibition” value is on record as 2% and the Z score is -0.24.
